# Assay results taken from the supplement of paper PMC3334620.
# In all, about 33,000 sequences were measured (“E-score (-0.5 to 0.5)”: median about -0.016, highest 2% from about 0.31 on). Some of the results follow.
# Target: Cst6 (UniProt P40535)
# Experiment: PBM E-score (8-mer binding enrichment) (E-score (-0.5 to 0.5)); higher = stronger / more preferred TF binding; most listed sequences are background and not binding sites
# Conditions: protein concentration: 200 nM; construct: GST-DNA-binding domain
# Method in brief: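 Using PURExpress in vitro transcription/translation, GST-tagged yeast transcription factors were made in full-length or DNA-binding-domain form. These were applied at about 100-200 nM to double-stranded universal all-10-mer Agilent arrays, and bound protein was detected with fluorescent anti-GST. Scans were normalised with masliner before the Universal PBM Analysis Suite assigned E-scores to ungapped eight-base words pooled with their reverse complements.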
row,Sequence,PBM E-score
1,CATATTAG,0.189
2,ACATGGGA,-0.0499
3,GGCTTGTA,-0.121
4,ATTCCTGG,-0.0933
5,GCGGCCAA,0.0174
6,GAAGGGGA,-0.187
7,ATTACTAG,-0.0138
8,AAAAGGAT,0.07
9,GACGTCAC,0.495
10,ACCATAAC,0.0929
11,CCTCTGTC,-0.184
12,CACGTAAA,0.181
13,ACTTACAT,0.149
14,AGAAACAC,0.0274
15,CCCGCTAC,-0.101
16,AGATAGGA,-0.101
17,ACATCGAA,0.182
18,AGGAGTAG,0.0204
19,CAACAAGA,0.113
20,AGGACCAA,-0.0819
21,AACTCCAA,0.0552
22,CATAAAAG,0.145
23,CCACCTAC,0.0546
24,AGCGTGCC,-0.00767
25,ACTGGCTA,-0.108

row,Sequence,PBM E-score
1,CTCAGTAC,-0.0935
2,GAGTTCCA,-0.103
3,CGCCCCAA,0.0361
4,GCTGTCCC,-0.22
5,CGTTTCTC,-0.239
6,GCAGGCAC,-0.267
7,ACGACCGT,-0.238
8,AGGATCGC,-0.00903
9,CGAGTACA,-0.0177
10,ACCAACAC,0.0173
11,CCGTCCAA,-0.116
12,AGCGTTTG,-0.0379
13,GGGCGGGA,-0.0359
14,CGGAGTGC,-0.0178
15,ACAGGGGT,-0.331
16,AGCAGCAA,-0.0674
17,CCAACCAC,-0.0582
18,AACTCACA,0.119
19,TCGGGCCA,-0.233
20,ACTCTTTG,0.00634
21,ACTACCCT,-0.111
22,ACCCTTAA,-0.207
23,AGCTGCAC,-0.144
24,GACTCCAC,-0.271
25,CTAAGAAA,0.109

row,Sequence,PBM E-score
1,GCTTCTAA,-0.0534
2,CGCAACAA,0.135
3,CCCTTAAA,-0.111
4,ATTTCCAG,0.0306
5,CCCATATC,0.0133
6,CGAACGCA,0.261
7,GCGCCTCA,0.0635
8,ATCGCGGC,0.0883
9,CCATGCAG,-0.0955
10,ACATTTCT,0.0719
11,AGGGCAAC,-0.0629
12,CACTCAAG,-0.115
13,AACCGGCA,-0.277
14,AAAACAAC,0.0133
15,CAGGTTGA,-0.0445
16,CCTCCATC,-0.327
17,CACATAGG,-0.00938
18,AAAATAAG,0.139
19,ATTGCTTC,-0.043
20,AATCCATC,-0.0415
21,CTGTAGCA,-0.168
22,GCTTAGAA,-0.11
23,TCGTTACA,0.0818
24,GGTAGGGA,-0.0499
25,AAGGCCGG,-0.235

row,Sequence,PBM E-score
1,CAAAGTTA,0.2
2,CTGGTTAC,-0.116
3,ATCTTAAT,0.104
4,CAAGCGAA,0.0719
5,ATTTGGGG,0.0052
6,TCGGCCCA,-0.153
7,GGCTCGGA,-0.348
8,GAGGCGAC,-0.0705
9,AGCAACTA,0.093
10,CCTTAGTC,-0.25
11,CGCCGTCA,0.291
12,ACCCTTCT,-0.147
13,TCCGCTAA,-0.0697
14,CGCTGTAC,-0.158
15,ACATGGGC,-0.0483
16,CACGGAAG,-0.147
17,GAGCGCGA,0.0429
18,AACGTAGC,0.0195
19,ATGACTTA,0.259
20,GCTGCTCC,-0.288
21,CTGTAGAC,0.0583
22,ATACTCGA,-0.0849
23,CGCGCGCG,0.123
24,TCGCTGCA,-0.0796
25,CTGGATTA,0.066

row,Sequence,PBM E-score
1,TTACACAA,0.302
2,ACCAACTA,0.111
3,TCCGGAGA,-0.251
4,CATCATCG,0.333
5,CCACCTAG,-0.314
6,AAGACCGC,-0.18
7,GAGTGATC,0.0955
8,ATTTACGA,0.189
9,ATCTGACC,0.0204
10,TAGGCAGA,0.0434
11,GCTGGGCA,-0.177
12,AGGTCCTC,-0.201
13,AGCGTGAA,-0.132
14,AGGCCGGC,-0.216
15,CCCGTTAG,-0.281
16,ATATGAAT,0.15
17,ACCCCAGC,-0.12
18,ATTACGAA,0.305
19,CCCGACAG,-0.223
20,ACGCAAAC,0.235
21,CGGCATAG,0.0517
22,TATTTTAA,0.259
23,CCCATCAG,-0.295
24,ATACGTGA,0.19
25,CCCAGCCA,-0.181

row,Sequence,PBM E-score
1,ATGTCTAG,0.0813
2,CCTCGGTA,-0.338
3,ACGTCTTC,0.0859
4,ACCTATGC,-0.151
5,CGCGTTAG,0.075
6,ATGAACTA,0.0467
7,GATGGTGC,-0.251
8,AGGTGCTA,-0.17
9,AAGCATCA,0.0812
10,ACCACTTC,-0.0806
11,AACGCAAT,0.23
12,CGGTGTAG,-0.163
13,ATAGTACA,0.0292
14,AGCTGCGC,-0.142
15,TAAATCTA,0.0712
16,AGGGAAGG,-0.28
17,CCATTCTC,-0.101
18,ACTTGCGC,-0.0133
19,CGAGGTCA,-0.0231
20,GCTCCCGA,-0.173
21,CAAAATCA,0.154
22,TCTCAAGA,-0.0292
23,CGTATGGC,0.23
24,GTCTTGGA,-0.155
25,CCGCGCCC,-0.0858

row,Sequence,PBM E-score
1,AAGAGTAC,-0.161
2,AATAGAGC,0.102
3,GGCCCGGA,-0.249
4,CAAGCTGG,-0.287
5,TAGATAGA,0.0248
6,TCATTCGA,0.235
7,CCAACGCC,-0.0859
8,ATTGCAAC,-0.0853
9,AAACCGGG,-0.102
10,AACCCCAG,-0.195
11,AACTGCGA,-0.124
12,ATTTTTCC,0.148
13,CTGGAAGA,-0.0853
14,AACCCCCG,-0.402
15,GCTGCTGA,0.0238
16,AGGTGCGA,-0.148
17,AGAAAGAA,-0.00996
18,AACTTTCA,0.183
19,GCTCTCCA,-0.222
20,CTGACCGA,-0.193
21,AAAGAACC,0.0603
22,GCAGCGTA,-0.177
